Results: PMC4336329 (PLoS ONE, 2015)
About 2,200 (0.71%) of roughly 310,000 compounds showed an effect of 50% or more. Effects have a minus sign here. Some of the results follow.

biological target: human ether-à-go-go-related gene (hERG) potassium channel (human, UniProt Q12809); test: primary screen, population patch clamp on CHO cells stably expressing hERG
Sequence (Q12809 whole entry, looked up): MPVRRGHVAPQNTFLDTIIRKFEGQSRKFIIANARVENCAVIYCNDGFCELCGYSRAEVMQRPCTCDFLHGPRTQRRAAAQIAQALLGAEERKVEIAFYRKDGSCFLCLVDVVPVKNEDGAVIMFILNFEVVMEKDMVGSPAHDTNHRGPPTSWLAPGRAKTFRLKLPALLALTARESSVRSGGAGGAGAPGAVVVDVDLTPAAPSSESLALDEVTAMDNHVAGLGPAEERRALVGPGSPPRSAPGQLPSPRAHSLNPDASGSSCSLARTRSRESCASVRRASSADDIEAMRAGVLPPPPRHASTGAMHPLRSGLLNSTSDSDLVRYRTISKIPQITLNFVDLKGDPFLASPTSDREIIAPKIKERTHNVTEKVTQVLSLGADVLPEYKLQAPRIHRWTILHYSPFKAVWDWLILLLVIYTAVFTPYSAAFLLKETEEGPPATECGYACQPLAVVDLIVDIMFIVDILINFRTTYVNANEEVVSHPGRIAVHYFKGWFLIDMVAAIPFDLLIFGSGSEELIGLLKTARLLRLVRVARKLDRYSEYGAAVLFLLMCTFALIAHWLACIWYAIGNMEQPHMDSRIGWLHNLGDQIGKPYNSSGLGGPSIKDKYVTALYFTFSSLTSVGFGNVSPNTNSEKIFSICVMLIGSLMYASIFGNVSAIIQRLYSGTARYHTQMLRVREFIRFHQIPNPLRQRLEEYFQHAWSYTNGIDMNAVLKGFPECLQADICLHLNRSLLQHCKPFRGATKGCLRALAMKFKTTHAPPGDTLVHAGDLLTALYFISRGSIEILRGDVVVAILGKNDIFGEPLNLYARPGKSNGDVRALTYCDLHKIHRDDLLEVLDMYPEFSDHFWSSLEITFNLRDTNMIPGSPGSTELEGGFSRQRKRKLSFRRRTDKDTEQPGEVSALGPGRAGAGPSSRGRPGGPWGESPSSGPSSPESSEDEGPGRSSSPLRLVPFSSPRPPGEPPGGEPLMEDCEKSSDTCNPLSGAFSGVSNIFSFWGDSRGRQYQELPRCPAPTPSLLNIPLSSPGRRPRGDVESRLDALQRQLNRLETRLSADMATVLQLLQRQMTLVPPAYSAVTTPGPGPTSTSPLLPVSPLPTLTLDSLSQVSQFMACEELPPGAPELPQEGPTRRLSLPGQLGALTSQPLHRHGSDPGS

SMILES | hERG current change (%, negative = inhibition) at 1uM [%]
CCCCSCCCNC(=O)c1ccc2c(c1)N(CC)C(=O)c1ccccc1S2=O (centres unmarked) | 5.8
CCOC(=O)c1cnc2c(C(=O)OC)cccc2c1NCc1ccco1 | -71.4
O=C(NC1Cc2ccccc2C1)c1cc(COc2cccc(C(F)(F)F)c2)on1 | 15.8
Cc1ccc(N/N=C2\CS(=O)(=O)N(C)c3ccsc32)cc1 | 12.4
COc1ccc(-c2csc(Nc3cc(C)ccn3)n2)cc1OC | 16.2
O/C(=C\c1nc2ccccc2[nH]1)c1cccs1 | 0.259
COC(=O)c1ccsc1NC(=O)CCS(=O)(=O)c1ccc(Cl)cc1 | 8.15
O=C(N1CCOCC1)N(Cc1cccs1)C1CCCC1 | 6.53
Cc1ccc(Sc2cc(C(=O)c3ccccc3C(=O)O)ccc2[N+](=O)[O-])cc1 | 13.8
COc1ccc(NS(=O)(=O)c2cccs2)c(OC)c1 | 0.658
COC(=O)C1=C[C@@H](C(=O)OC)C2C3=C(C(=O)C24CCCCC4)[C@H](C)n2c(=O)n(C)c(=O)n2[C@@H]3C1 (some centres unmarked) | 14.6
COc1ccccc1CNC(=O)COC(=O)c1ccc(C)c(S(=O)(=O)N2CCOCC2)c1 | 7.91
CCOC(=O)C1(C(F)(F)F)N=C(c2ccccc2F)OC(N(C)C)=N1 (centres unmarked) | 7.37
Cc1ccc(S(=O)(=O)NC(=NCC(=O)O)c2ccccc2)cc1 | 6.82
O=C(Cc1c(Cl)cccc1Cl)Nc1ccncc1 | 0.578
CCC1(C)Cc2ccccc2-c2nc3n(c(=O)c21)CC(C(=O)O)S3 (centres unmarked) | 12.1
Cc1ccc(N(O)C(=O)OCCNC(=O)Nc2ccccc2)cc1 | 10.3
COc1ccnc(Oc2ccccc2)c1C#N | 6.34
CCn1c(-c2nn(-c3ccc(C)cc3)ccc2=O)n[nH]c1=S | 2.46

SMILES | hERG current change (%, negative = inhibition) at 1uM [%]
O=C1c2ccccc2NC(c2cc(Cl)cc(Cl)c2O)N1Cc1cccnc1 (centres unmarked) | 6.13
Cc1ccc(C(=O)C(C)OC(=O)C2CCN(c3ccc(C(F)(F)F)cn3)CC2)cc1C (centres unmarked) | 10.6
Cc1cccc(OCCSc2nc(N)cc(N)n2)c1 | 11
CC(C)(C)C(=O)Oc1cc(N)n(S(=O)(=O)c2ccccc2)n1 | 7.51
CCOC(=O)CSc1snnc1-c1ccccc1 | 11.4
CN1C(C(=O)NCCc2cccs2)CC2Cn3c(nc4cc5ccccc5cc43)C21 (centres unmarked) | -21.4
COc1ccc(C(=O)CCNc2ccc(F)cc2)cc1 | 9.93
CC(=O)c1ccc(OC(=O)CCc2nc3ccccc3s2)cc1 | 11.7
CCOc1cc2c(cc1OCC)-n1cccc1C(c1ccc(OC)c(O)c1)NC2.Cl (centres unmarked) | 0.376
COc1ccccc1CCc1nnc(CCC(=O)NCCCOc2cccnc2)o1 | 9.05
Cc1ccc(CSc2nc3ccncc3n2CC(=O)Nc2cc(C)cc(C)c2)cc1 | 11.8
CC(C)Oc1ccc(C(=O)Nc2cccc3cccnc23)cc1 | 6.11
O=C(NNC(=S)Nc1ccc(Br)cc1)c1ccc(N2CCOCC2)c([N+](=O)[O-])c1 | 10.1
O=C(N/N=C/c1cccc(OCc2ccccc2)c1)c1ccc(Br)cc1 | -1.87
CCOC(=O)C1CCN(c2c([N+](=O)[O-])c(C(Cl)Cl)nn2-c2ccccc2)CC1 | 3.58
Cc1ccc(C(=O)C2CCN(CC(=O)N3CCN(c4ccc(F)cc4)CC3)CC2)cc1 | -66.5
CN(C)c1ccc(N/C=C/C(=O)C(C)(C)C)cc1 | 16
COc1ccc(NC(=S)NCc2ccc(S(N)(=O)=O)cc2)c(OC)c1 | 9.35
CCOc1ccc(-c2c(C(=O)N/N=C/c3ccc(C)o3)nnn2-c2nonc2N)cc1 | 13.8

SMILES | hERG current change (%, negative = inhibition) at 1uM [%]
CN(C)C1=C(Cl)C(=O)N(c2ccc(Cl)c(Cl)c2)C1=O | 11.2
O=[n+]1c2c(n([O-])c3cc(Br)ccc31)CCC2 | 3.9
CCN1CCN(C(=S)c2ccc(OCC(=O)Nc3ccc(OC)cc3)cc2)CC1 | 3.47
CCN(CC)S(=O)(=O)c1ccc2oc(C(=O)NCC3COc4ccccc4O3)c(C)c2c1 (centres unmarked) | 6.82
CCOc1ccc(N(CC(=O)NC2CCCC2)S(=O)(=O)c2c(C)[nH]c(=O)[nH]c2=O)cc1 | 10.8
Cc1ccc(C2N(c3ccc(Cl)c(Cl)c3)C(=O)C3CCCN32)o1 (centres unmarked) | 10.9
Cc1cc(C(=O)N/N=C2\CC(=O)CC(C)(C)C2)n[nH]1 | 2.33
CCOC(=O)CN1C(=O)C(Sc2n[nH]c(-c3cccc(C)c3)n2)CCc2ccccc21 (centres unmarked) | 9.6
COc1ccc(CCC(=O)Nc2ccc(-c3noc(-c4ccc(OC)c(OC)c4)n3)cc2)cc1 | 22.2
CCCCN(CC)CCCNC(=O)c1cc2cc3ccc(OC)cc3nc2o1 | -32.7
COC(=O)[C@H]1C[C@@H]1[C@H](NC(=O)c1cccnc1)c1ccccc1 | 11.5
CC1(C)NC(=O)N(c2ccccc2Cl)C1(C)NO (centres unmarked) | -5.78
CS(=O)(=O)N(CC(=O)NCc1ccncc1)c1ccc(Cl)c(Cl)c1 | -6.93
COc1ccc(CN2CCN(CC(O)Cn3c4ccccc4c4ccccc43)CC2)cc1 (centres unmarked) | -8.22
COc1ccc2c(c1)CC[C@@H]1[C@@H]2CC[C@]2(C)C(=O)CC[C@@H]12 | 14.4
Cc1ccc(-c2nnc(-c3cccc(NC(=O)c4cccs4)c3)o2)cc1 | 6.58
CCOC(=O)N1CCN(C(=O)CNC(=O)c2ccc(Cl)cc2Cl)CC1 | -9.31
CC(C)CCNC(=O)CN(Cc1ccccc1)C(=O)CCC(=O)Nc1ccccn1 | 2.22
